{"source": "paper PMC3437384", "about": "(Biochemistry, 2012)", "proteins": {"B1": {"name": "N-domain of cardiac troponin C with the L48Q mutation, cNTnC(L48Q) (domain or fragment)", "chain": "not shown"}}, "target": "the molecule itself", "assay": "NMR 15N-T2 relaxation against protein concentration", "data": [{"protein": "B1", "values": [{"measurement": "Kd", "value": "~2", "unit": "mM"}]}]}
